Assay in all cases: Viability of human cancer cell lines after 72 h of drug (GDSC screen)
Compound in test [1]: NCC(=O)Nc1ccc(-n2nc(C(F)(F)F)cc2-c2ccc3c(ccc4ccccc43)c2)cc1 [OSU-03012]
The conditions noted are these: top dose 16 µM; top dose inferred. As for the experimental part:
(§1)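 Human cancer cell lines in 384-well plates, medium with 10% serum, drug for 72 h over a 256-fold dose range (nine 2-fold or five 4-fold steps up to the top dose). Adherent lines were fixed and stained with the nucleic acid dye Syto60, suspension lines read with resazurin; signal relative to control wells, capped at 0 and 100%. One two-parameter sigmoid per drug and line, fitted in a mixed model over all curves with the slope shared within a line.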

Compound in test [2]: Fc1cc(-c2ccnc(Nc3ccc(-n4cnc(N5CCOCC5)n4)cc3)n2)cc(N2CCOCC2)c1 [JNK-9L]
The conditions noted are these: top dose 5.12 µM; top dose inferred. Here is the method:
as §1

Compound in test [3]: OC[C@H](Cc1ccccc1)Nc1nc(Oc2ccc3c(c2)CCC3)nc2c1ncn2Cc1ccc(-c2ccccc2)cc1 [QS11]
Particulars: top dose 10.24 µM. As for the experimental part: as §1

Compound in test [4]: C#Cc1cccc(Nc2ncnc3cc(OC)c(OCCCCCCC(=O)NO)cc23)c1 [CUDC-101]
The conditions noted are these: top dose 5.12 µM; top dose inferred. Here is the method:
as §1

Compound in test [5]: CC(C)(C)c1cc(NC(=O)Nc2ccc(-c3cn4c(n3)sc3cc(OCCN5CCOCC5)ccc34)cc2)no1 [AC220]
Particulars: top dose 1.024 µM; top dose inferred. Here is the method: as §1

Compound in test [6]: COc1cc(F)c(F)c(Nc2ccc(I)cc2F)c1NS(=O)(=O)C1(C[C@H](O)CO)CC1 [RDEA119]
Particulars: top dose 5 µM, top dose inferred. As for the experimental part:
as §1

Compound in test [7]: O=c1[nH]cc(F)c(=O)[nH]1 [5-Fluorouracil]
The conditions noted are these: top dose 32 µM; top dose inferred. As for the experimental part: as §1

IC50 is the fitted dose that halves viability relative to control wells, and lower means more sensitive; a limit (>, <) means that the fit lies beyond the doses tested. AUC, from the same fit, is the share of area under the viability curve across the 256-fold dose range; values near 1 show little effect. For part of these data: The top dose, if marked as inferred, comes from the curve model; the source does not state it. For part of these data: Drugs with an entry number were screened twice under separate entries, and the two screens often disagree.

These results are taken from the supplement of paper PMC4967469.

As to MHH-ES-1 (Ewing sarcoma, adherent), the AUC was 0.619 in test [1]; 0.472 in test [2]; 0.885 in test [3]; 0.456 in test [4]; 0.946 in test [5]; 0.984 in test [6] (screen: GDSC drug entry 1014). Besides, the AUC in test [6] (screen: GDSC drug entry 1526) stood at 0.984; in test [7], 0.68. Moreover, the concentration for half-maximal inhibition (IC50) is 2110 nM in test [1]; 268 nM in test [2]; greater than 10200 nM in test [3]; 242 nM in test [4]; greater than 1020 nM in test [5]; greater than 5000 nM in test [6] (screen: GDSC drug entry 1014). Moreover, the IC50 is greater than 5000 nM in test [6] (screen: GDSC drug entry 1526) and 6310 nM in test [7].

Turning to MHH-NB-11 (neuroblastoma, adherent), the AUC was 0.974 in test [1]; 0.69 in test [2]; 0.985 in test [3]; 0.354 in test [4]; 0.981 in test [5]; 0.612 in test [6] (screen: GDSC drug entry 1014). The AUC in test [7] worked out at 0.451. Further, the IC50 in test [1] is greater than 16000 nM; in test [2] it was 1160 nM; in test [3] it was greater than 10200 nM; in test [4], 121 nM; in test [5], greater than 1020 nM; in test [6] (screen: GDSC drug entry 1014), 656 nM. Further, the 50% inhibitory concentration (IC50) in test [7] was 1450 nM.

On to “MHH-PREB-1 (B-cell leukaemia, suspension)”, for which the AUC in test [1] worked out at 0.599; in test [2], 0.512; in test [3], 0.912; in test [4], 0.185; in test [5] it was 0.989; in test [6] (screen: GDSC drug entry 1014), 0.988. Besides, the AUC is 0.978 in test [6] (screen: GDSC drug entry 1526) and 0.675 in test [7]. Further, the half-inhibitory concentration (IC50) is 1810 nM in test [1]; 344 nM in test [2]; greater than 10200 nM in test [3]; 41.9 nM in test [4]; greater than 1020 nM in test [5]; greater than 5000 nM in test [6] (screen: GDSC drug entry 1014). Also, the figures for the IC50 in test [6] (screen: GDSC drug entry 1526) and in test [7] were greater than 5000 nM and 5810 nM, respectively.

For the cell line MIA-PaCa-2 (pancreas, adherent), the AUC in test [1] came to 0.703; in test [2], 0.609; in test [3] it was 0.851; in test [4] it was 0.688; in test [5], 0.984; in test [6] (screen: GDSC drug entry 1014), 0.509. Besides, in test [7], the AUC amounted to 0.975. Moreover, the IC50 in test [1] was 3980 nM; in test [2] it was 656 nM; in test [3], 9060 nM; in test [5] it was greater than 1020 nM; in test [6] (screen: GDSC drug entry 1014), 332 nM; in test [7], greater than 32000 nM.

Take MKN1 (stomach, adherent): the AUC was determined as 0.711 in test [1]; 0.6 in test [2]; 0.924 in test [3]; 0.597 in test [4]; 0.981 in test [5]; 0.929 in test [6] (screen: GDSC drug entry 1014). Further, the figures for the AUC in test [6] (screen: GDSC drug entry 1526) and in test [7] were 0.882 and 0.86, respectively. Moreover, the IC50 in test [1] was 4090 nM; in test [2] it was 611 nM; in test [3], greater than 10200 nM; in test [4] it was 600 nM; in test [5], greater than 1020 nM; in test [6] (screen: GDSC drug entry 1014), greater than 5000 nM. In addition, the IC50 is greater than 5000 nM in test [6] (screen: GDSC drug entry 1526) and 29300 nM in test [7].

In the case of ML-1 (thyroid, adherent), the AUC in test [1] came out at 0.653; in test [2] it was 0.488; in test [3], 0.908; in test [4], 0.505; in test [5], 0.982; in test [6] (screen: GDSC drug entry 1526), 0.845. Further, the AUC in test [7] was determined as 0.976. Also, the 50% inhibitory concentration (IC50) was 2870 nM in test [1]; 295 nM in test [2]; greater than 10200 nM in test [3]; 331 nM in test [4]; greater than 1020 nM in test [5]; 4580 nM in test [6] (screen: GDSC drug entry 1526). Also, the IC50 in test [7] was greater than 32000 nM.

Consider “ML-2 (acute myeloid leukaemia, suspension)”, for which the AUC came out at 0.701 in test [1]; 0.543 in test [2]; 0.883 in test [3]; 0.531 in test [4]; 0.983 in test [5]; 0.756 in test [6] (screen: GDSC drug entry 1014). Moreover, the AUC in test [6] (screen: GDSC drug entry 1526) stood at 0.679; in test [7], 0.574. In addition, the IC50 in test [1] is 3400 nM; in test [2], 412 nM; in test [3], 8860 nM; in test [4], 384 nM; in test [5] it was greater than 1020 nM; in test [6] (screen: GDSC drug entry 1014), 1540 nM. Further, the IC50 in test [6] (screen: GDSC drug entry 1526) came out at 929 nM; in test [7], 3110 nM.

With “MLMA (hairy cell leukaemia, semi-adherent)”, the AUC came out at 0.798 in test [1]; 0.55 in test [2]; 0.946 in test [3]; 0.294 in test [4]; 0.986 in test [5]; 0.986 in test [6] (screen: GDSC drug entry 1014). In addition, the AUC in test [6] (screen: GDSC drug entry 1526) was 0.973; in test [7], 0.741. For the same cell line, the IC50 in test [1] was 7670 nM; in test [2], 439 nM; in test [3] it was greater than 10200 nM; in test [4], 83.3 nM; in test [5] it was greater than 1020 nM; in test [6] (screen: GDSC drug entry 1014), greater than 5000 nM. Further, the results for the half-inhibitory concentration (IC50) in test [6] (screen: GDSC drug entry 1526) and in test [7] were greater than 5000 nM and 9850 nM, respectively.

Turning to MMAC-SF (melanoma, adherent), the AUC in test [1] was 0.853; in test [2], 0.708; in test [3], 0.894; in test [4], 0.785; in test [5] it was 0.967; in test [6] (screen: GDSC drug entry 1526), 0.235. Besides, the AUC in test [7] was found to be 0.917. Further, the concentration for half-maximal inhibition (IC50) was 13400 nM in test [1]; 1270 nM in test [2]; greater than 10200 nM in test [3]; 2300 nM in test [4]; greater than 1020 nM in test [5]; 51.4 nM in test [6] (screen: GDSC drug entry 1526). Also, the IC50 in test [7] is greater than 32000 nM.

As a reminder, the IC50 is the concentration at which inhibition is half-maximal.
